# Source: PubChem BioAssay (NCATS)
# Values joined by “and” are separate entries in the source; they are usually repeats but may differ in a detail not shown here. Identical values can stand only once. Inconclusive means that the source gave no clear call. Such entries were picked first, then a sample of the others. A potency beside an inconclusive call is a rough fit, not a confirmed value. Active and inactive are the calls of the source. Calls follow the shape of the dose curve; as a rule, active = well fitted curve in the direction sought with a large enough effect; inconclusive = small, poorly fitted or top-dose-only effect, or another doubt; inactive = no such curve, though single readings can be large; an effect the other way counts as inactive or inconclusive. Where a SMILES comes first, the peptide text is derived from it. [ ]: non-standard residue; d: D form. Orn = NCCC[C@H](N)C(=O)O
# Legend:
# [1] = qHTS Assay for Identifying Gametocytocidal Compounds (AID 743244);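 as to max response: % is scaled to controls: 0 for no effect and ±100 for the full control effect; actives lower the fluorescent signal which means gametocytes are killed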; conditions: P. falciparum 3D7 stage III-V gametocytes, alamarBlue, 72 h; max response: active compounds read low
# How it was run: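 Stage III-V P. falciparum 3D7 gametocytes, 20,000 per well, were exposed to compounds for 72 h at 37C, 5% CO2. AlamarBlue was then added for 24 h and viability was read as fluorescence at Ex 525/Em 598 nm.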
# [2] = qHTS assay to identify small molecule inhibitors of chordoma cells - UCH-2 (AID 1259356)
# [3] = NS1 protein of Zika virus - qHTS assay to identify small molecule inhibitors in human HEK 293 cells (AID 1347053); also: nearly all actives have a fitted effect of over 55% in size
# How it was run: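 Inhibition of NS1 expression was scored in HEK 293 cells given compound 1 h ahead of MR766 virus (MOI = 0.5). Following 24 h at 37 C, two anti-NS1 antibodies generated a TR-FRET signal, scaled between uninfected and infected controls.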
# [4] = qHTS assay to identify small molecule inhibitors of chordoma cells - UCH-1 (AID 1259355); also: nearly all actives have a fitted effect of over 55% in size; as to potency: series mostly up to about 46 µM
# How it was run: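 Cells (800/well) were seeded and left overnight at 37 C, 5% CO2, then treated with drugs at 15 concentrations plus a combination mix of auranofin, camptothecin, doxorubicin, rubitecan and topotecan. Viability after 48hr was read by CellTiter-Glo luminescence.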
# [5] = P-glycoprotein substrates identified in KB-8-5-11 adenocarcinoma cell line, qHTS therapeutic library screen (AID 1346987); also: nearly all actives have a fitted effect of over 65% in size
# How it was run: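 P-gp-mediated resistance screen: KB-8-5-11 cells treated 72 h with compounds in dose-response. CellTiter-Glo viability.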
# Potency is read from the fitted curve at half-maximal effect; tags tell the direction and shape of the fitted curve.
compound,measurement,setting,value
CCCCCCC[N+](CC)(CC)CCCCc1ccc(Cl)cc1,Potency,[1],active: 3.55 µM
same,Potency,[2],"inconclusive: 15.6 µM [cytotoxic, single point]"
same,Potency,[3],"inconclusive: 35.5 µM [inhibitor, single point]"
CC(=O)[C@H]1CC[C@H]2[C@@H]3C[C@H](C)C4=CC(=O)CC[C@]4(C)[C@H]3[C@@H](O)C[C@]12C,max response,[1],inactive: 9.78%
same,Potency,[4],"inconclusive: 0.0251 µM [cytotoxic, full curve, poor fit]"
CC(C)C[C@@H]1NC(=O)[C@H](CCCN)NC(=O)[C@H](C(C)C)NC(=O)[C@@H]2CCCN2C(=O)[C@@H](Cc2ccccc2)NC(=O)[C@H](CC(C)C)NC(=O)[C@H](CCCN)NC(=O)[C@H](C(C)C)NC(=O)[C@@H]2CCCN2C(=O)[C@@H](Cc2ccccc2)NC1=O (cyclo(V[Orn]L[dF]PV[Orn]L[dF]P)),Potency,[1],active: 2.24 µM
same,Potency,[4],"inconclusive: 2.24 µM [cytotoxic, full curve, poor fit]"
C=C1CC[C@@H]2[C@](C)(CO)[C@H](O)CC[C@@]2(C)[C@@H]1C/C=C1/C(=O)OC[C@H]1O,Potency,[1],active: 20 µM
same,Potency,[4],"inconclusive: 11.2 µM [cytotoxic, full curve, poor fit]"
CN1CCc2c(c3ccccc3n2Cc2ccccc2)C1,max response,[1],inactive: 9.99%
same,Potency,[4],inactive
CC1=C(C/C=C(\C)CCC[C@H](C)CCC[C@H](C)CCCC(C)C)C(=O)c2ccccc2C1=O,Potency,[1],"inconclusive: 17.8 µM [inhibitor, single point]"
same,Potency,[4],inactive
Cc1ccc(O)c2ncccc12,Potency,[1],"inconclusive: 14.1 µM [inhibitor, single point]"
same,Potency,[4],inactive
CCC(=O)O[C@]1(C(=O)CCl)[C@@H](C)C[C@H]2[C@@H]3C[C@H](F)C4=CC(=O)C=C[C@]4(C)[C@@]3(F)[C@@H](O)C[C@@]21C,Potency,[1],"inconclusive: 20 µM [inhibitor, single point]"
same,Potency,[2],"inconclusive: 2.06 µM [cytotoxic, full curve, poor fit]"
same,Potency,[5],"inconclusive: 8.2 µM [inhibitor, partial curve] and inconclusive: 18.4 µM [inhibitor, single point]"
